Measurements as given in PubChem BioAssay AID1508642 (National Center for Advancing Translational Sciences (NCATS), 2021).
The whole screen tested about 43,000 compounds, of which about 200 (0.47%) were called active. Roughly 12% stayed inconclusive and do not appear here. The call rests on the fitted dose curve; in most records, active means well fitted cell-killing curve with a large enough effect; inconclusive means small, poorly fitted or top-dose-only effect, or effect the other way; inactive means flat fitted curve, though single readings scatter. Some of the results follow.

Assay: Cell viability qHTS assay in S16 Pmp22-F2sN cells; further: nearly all actives have a fitted effect of over 65% in size
Conditions: S16 Pmp22-F2sN Schwann cells viability, CellTiter-Glo, 24 h; series mostly up to 57.5 µM; activity change, negative = cytotoxicity: at the top concentration
Summary of the method: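 S16 Pmp22-F2sN Schwann cells (500-1,000/well) in phenol-red-free DMEM with 10% FBS received 23 nL compound by pin tool for 24 h at 37 °C. Viability was then read as CellTiter-Glo luminescence after 15 min at room temperature.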
On the % scale 0 is the no-effect control and ±100 the full control effect.

Question: For `COc1ccc(N(CC(=O)N2CCN(c3ccc(F)cc3)CC2)S(=O)(=O)c2c(C)nn(C)c2C)cc1`, which “activity change, negative = cytotoxicity” value is on record?
Answer: inactive: -4.25%

Question: With `CC(=O)c1c(C)oc2ccc(N(C(=O)c3ccncc3)S(=O)(=O)c3ccc(F)cc3C)cc12` as the molecule, how does the “activity change, negative = cytotoxicity” value read?
Answer: inactive: -8.6%

Question: Which “activity change, negative = cytotoxicity” value does the source give for `Cc1cccc(C(=O)Nc2sc3c(c2C(=O)O)CCCC3)c1` here?
Answer: inactive: 4.22%

Question: Which “activity change, negative = cytotoxicity” value does the source give for `Cc1cc(C)cc(NC(=O)CN(C)S(=O)(=O)c2ccc3c(c2)CCC(=O)N3)c1` here?
Answer: inactive: 11.4%

Question: With `CCOC(=O)C(CC)Sc1nnc2[nH]c(=O)cc(C)n12` (stereo not drawn) as the molecule, how does the “activity change, negative = cytotoxicity” value read?
Answer: inactive: 9.74%

Question: For `COc1cccc(CNC(=O)CC(c2ccc(C)cc2)N2Cc3ccccc3C2=O)c1` (stereo not drawn), which “activity change, negative = cytotoxicity” value is on record?
Answer: inactive: 3.22%

Question: With `Cc1ccc(CNC(=O)c2cnn(-c3ccc(F)cc3F)c2C2CCN(C(=O)OC(C)(C)C)CC2)cc1` as the molecule, how does the “activity change, negative = cytotoxicity” value read?
Answer: inactive: -11.4%

Question: With `CCCOc1ccc(C2C(=O)N(C3CCCCC3)CC(=O)N2CCC2=CCCCC2)cc1OC` (stereo not drawn) as the molecule, how does the “activity change, negative = cytotoxicity” value read?
Answer: inactive: 5.14%

Question: For `COc1ccc(NS(=O)(=O)c2ccc3c(c2)n(C)c(=O)c(=O)n3C)cc1Cl`, which “activity change, negative = cytotoxicity” value is on record?
Answer: inactive: -14.5%

Question: Which “activity change, negative = cytotoxicity” value does the source give for `COc1ccc(-n2cc(C(=O)Nc3ccccc3C#N)c3ccccc3c2=O)cc1` here?
Answer: inactive: -1.17%

Question: For `CNc1nc(Oc2ccc(=O)[nH]n2)nc(N2CCOCC2)n1`, which “activity change, negative = cytotoxicity” value is on record?
Answer: inactive: 1.73%

Question: For `COc1ccccc1NC(=O)C1=C(C)Nc2ncnn2C1c1sccc1C` (stereo not drawn), which “activity change, negative = cytotoxicity” value is on record?
Answer: inactive: 3.02%

Question: Which “activity change, negative = cytotoxicity” value does the source give for `Cc1ccccc1CNC(=O)Cn1cc2c(n1)-c1c(oc(C(=O)N3CCCC3)c1C)CC2` here?
Answer: inactive: 0.202%

Question: Which “activity change, negative = cytotoxicity” value does the source give for `COc1ccc(OC)c(CNC(=O)CCC(=O)N2Cc3ccccc3Oc3ncccc32)c1` here?
Answer: inactive: -16.3%

Question: For `COc1ccc2nc(NC(=O)c3nc(SCc4cccc(C)c4)ncc3Cl)sc2c1`, which “activity change, negative = cytotoxicity” value is on record?
Answer: inactive: 3.67%

Question: For `COc1ccc(N2CC(NC(=O)C3CCCC3)CC2=O)cc1` (stereo not drawn), which “activity change, negative = cytotoxicity” value is on record?
Answer: inactive: 0.402%

Question: For `O=C(c1cccc([N+](=O)[O-])c1)N1CCN(CCc2ccncc2)CC1`, which “activity change, negative = cytotoxicity” value is on record?
Answer: inactive: -2.56%

Question: With `COc1cccc(-n2cc(C(=O)Nc3ccccc3C(N)=O)c3ccccc3c2=O)c1` as the molecule, how does the “activity change, negative = cytotoxicity” value read?
Answer: inactive: 5.52%

Question: Which “activity change, negative = cytotoxicity” value does the source give for `Cc1nc(SCCOc2ccc(Cl)cc2)[nH]c(=O)c1Cc1ccccc1` here?
Answer: inactive: 17.5%

Question: With `CCOc1ccc(NC(=O)Cn2c(=O)n(Cc3ccccc3)c(=O)c3c4c(sc32)CN(C(C)=O)CC4)cc1` as the molecule, how does the “activity change, negative = cytotoxicity” value read?
Answer: inactive: -3.26%

Question: With `Cc1ccc(NC(=O)CN2C(=O)COc3ccc(S(=O)(=O)N4CCOCC4)cc32)c(Cl)c1` as the molecule, how does the “activity change, negative = cytotoxicity” value read?
Answer: inactive: 11.7%

Question: For `C=Cc1ccc(Cn2c(C(=O)OC)cc3sc(C)cc32)cc1`, which “activity change, negative = cytotoxicity” value is on record?
Answer: inactive: -4.97%

Question: For `COc1cccc(NC(=O)CC2Oc3ccccc3NC2=O)c1` (stereo not drawn), which “activity change, negative = cytotoxicity” value is on record?
Answer: inactive: 15.4%

Question: For `CC(=O)c1cccc(Nc2ncnc3c2cnn3-c2cccc(Cl)c2)c1`, which “activity change, negative = cytotoxicity” value is on record?
Answer: inactive: 11.8%

Question: For `COc1cccc(NC(=O)c2oc3ccc(S(=O)(=O)N4CCOCC4)cc3c2C)c1`, which “activity change, negative = cytotoxicity” value is on record?
Answer: inactive: -21.9%

Question: For `CC(C)OCCCNC(=O)CN1C(=O)CSc2ccc(S(=O)(=O)N3CCOCC3)cc21`, which “activity change, negative = cytotoxicity” value is on record?
Answer: inactive: 5.85%

Question: Which “activity change, negative = cytotoxicity” value does the source give for `CC1CCCCN1S(=O)(=O)c1ccc2[nH]c(=O)cc(C(=O)NCCc3ccc(Cl)cc3)c2c1` (stereo not drawn) here?
Answer: inactive: 5.28%

Question: With `CCc1ccc(Nc2nc3c(S(=O)(=O)c4cccc(Cl)c4)nnn3c3ccsc23)cc1` as the molecule, how does the “activity change, negative = cytotoxicity” value read?
Answer: inactive: 2.49%

Question: With `CC(=O)Nc1c(C(=O)Nc2ccccc2F)oc2ccccc12` as the molecule, how does the “activity change, negative = cytotoxicity” value read?
Answer: inactive: -1.31%

Question: With `Cc1ccc(Cl)cc1N1CCN(C(=O)C(C)n2ncn3cccc3c2=O)CC1` (stereo not drawn) as the molecule, how does the “activity change, negative = cytotoxicity” value read?
Answer: inactive: -17.7%

Question: With `CCCCN(CCCC)C(=O)c1cc2c(=O)n3ccccc3nc2s1` as the molecule, how does the “activity change, negative = cytotoxicity” value read?
Answer: inactive: -1.05%

Question: For `CCNC(=O)c1c(NC(=O)c2cc(=O)c3ccc(C)c(C)c3o2)sc2c1CCCC2`, which “activity change, negative = cytotoxicity” value is on record?
Answer: inactive: 8.19%

Question: With `Cc1cccc(N2CCN(S(=O)(=O)c3ccc(F)c(C(=O)Nc4cccc(Cl)c4C)c3)CC2C)c1` (stereo not drawn) as the molecule, how does the “activity change, negative = cytotoxicity” value read?
Answer: inactive: -1.75%

Question: For `Cc1cc(C)c(S(=O)(=O)NCC(c2ccco2)N2CCN(c3ccccc3)CC2)c(C)c1` (stereo not drawn), which “activity change, negative = cytotoxicity” value is on record?
Answer: inactive: -12%

Question: Which “activity change, negative = cytotoxicity” value does the source give for `Cc1ccc(-n2nc3c(=O)n(CCCC(=O)NCc4ccc(F)cc4)nc(C)c3c2C)cc1` here?
Answer: inactive: 0.571%

Question: With `Cc1cc(C(F)(F)F)c2c(N)c(C(=O)Nc3c(Cl)cccc3Cl)sc2n1` as the molecule, how does the “activity change, negative = cytotoxicity” value read?
Answer: inactive: -28.5%

Question: Which “activity change, negative = cytotoxicity” value does the source give for `O=C(CN1CCN(Cc2ccc(F)cc2)C1=O)NCc1ccccc1` here?
Answer: inactive: 2.63%

Question: Which “activity change, negative = cytotoxicity” value does the source give for `Cc1ccc2c(c1)-c1onc(C(=O)N3CCN(c4cccc(C)c4C)CC3)c1CO2` here?
Answer: inactive: 10.1%

Question: For `Cc1nn(-c2ccccc2)c2c1cc1c(=O)[nH]c(=O)nc-1n2-c1cccc(C(F)(F)F)c1`, which “activity change, negative = cytotoxicity” value is on record?
Answer: inactive: -0.185%

Question: For `COc1ccc(Nc2ncnc3c2cnn3C)c(OC)c1`, which “activity change, negative = cytotoxicity” value is on record?
Answer: inactive: -0.218%

Question: With `CCCC12CN3CC(C)(CN(C1)C3c1ccc(CC)cc1)C2=O` (stereo not drawn) as the molecule, how does the “activity change, negative = cytotoxicity” value read?
Answer: inactive: 12.4%

Question: With `CCc1ccc(OCC(=O)NCC(c2ccc(Cl)cc2)N2CCOCC2)cc1` (stereo not drawn) as the molecule, how does the “activity change, negative = cytotoxicity” value read?
Answer: inactive: -6.82%

Question: With `CC(C)c1ccc(NC(=O)c2cc3c(=O)oc4ccccc4c3s2)cc1` as the molecule, how does the “activity change, negative = cytotoxicity” value read?
Answer: inactive: 10.1%

Question: Which “activity change, negative = cytotoxicity” value does the source give for `CCOc1ccc(CCNC(=O)c2cc3c(=O)n(C)c4ccccc4c3s2)cc1OCC` here?
Answer: inactive: 13.6%

Question: With `COc1ccccc1NC(=O)c1sc2cccc(Cl)c2c1Cl` as the molecule, how does the “activity change, negative = cytotoxicity” value read?
Answer: inactive: 0.26%

Question: Which “activity change, negative = cytotoxicity” value does the source give for `COc1ccc(N2CCN(C(CNC(=O)C(=O)NCc3ccc(C)cc3)c3cccnc3)CC2)cc1` (stereo not drawn) here?
Answer: inactive: -24.9%

Question: For `Cc1ccccc1-c1nc(NC(=O)CSc2ncnc3sc4c(c23)CCCC4)ns1`, which “activity change, negative = cytotoxicity” value is on record?
Answer: inactive: -0.535%

Question: Which “activity change, negative = cytotoxicity” value does the source give for `O=C(CC(c1cccs1)N1Cc2ccccc2C1=O)Nc1ccccc1` (stereo not drawn) here?
Answer: inactive: -19.1%
